From article PMC6919601, “Identification of Plasmodium dipeptidyl aminopeptidase allosteric inhibitors by high throughput screening” (PLoS ONE, 2019)
Out of some 110,000 compounds screened, about 230 (0.21%) showed an effect of 50% or more. The list shows a part of the results.

Target: DPAP1 (Plasmodium falciparum, UniProt Q8IIJ9)
Assay: primary screen, percent inhibition; read by cleavage of a fluorogenic dipeptide substrate; higher = more effect of the substance
Design: species or system P. falciparum D10 trophozoite lysates; single well
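Note: 30 min substrate incubation versus DMSO and 10 µM JCP410 controls.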

Sequence of DPAP1 (Q8IIJ9 whole entry, looked up): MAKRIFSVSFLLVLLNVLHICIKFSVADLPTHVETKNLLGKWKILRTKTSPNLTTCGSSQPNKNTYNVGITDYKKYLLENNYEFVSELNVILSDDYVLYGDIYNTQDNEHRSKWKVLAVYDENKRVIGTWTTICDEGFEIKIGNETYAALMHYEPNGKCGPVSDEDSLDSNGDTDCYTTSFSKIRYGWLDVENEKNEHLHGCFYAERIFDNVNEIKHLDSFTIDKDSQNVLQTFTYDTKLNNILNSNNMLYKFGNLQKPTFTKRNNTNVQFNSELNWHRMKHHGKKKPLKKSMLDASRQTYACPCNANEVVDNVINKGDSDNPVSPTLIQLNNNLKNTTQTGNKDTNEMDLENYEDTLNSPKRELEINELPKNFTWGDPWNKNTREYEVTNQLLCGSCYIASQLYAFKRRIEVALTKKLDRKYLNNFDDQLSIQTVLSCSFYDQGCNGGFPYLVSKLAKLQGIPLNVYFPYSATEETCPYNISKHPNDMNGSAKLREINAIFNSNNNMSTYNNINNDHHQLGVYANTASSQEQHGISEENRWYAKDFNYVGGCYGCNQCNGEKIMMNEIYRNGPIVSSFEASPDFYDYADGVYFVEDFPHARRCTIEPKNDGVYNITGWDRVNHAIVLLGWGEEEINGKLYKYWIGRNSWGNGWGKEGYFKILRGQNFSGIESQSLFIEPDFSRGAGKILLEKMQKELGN

| SMILES | % Inhibition @ 10 uM [%] |
| --- | --- |
| Cc1ccc(Cl)cc1N1CCN(C(=O)CN(C2CCCCC2)S(C)(=O)=O)CC1 | 1.94 |
| CC(NC(=O)[C@H](Cc1ccccc1)N1Cc2ccccc2C1=O)c1cccs1 (stereo partly shown) | -2.25 |
| C=CCSc1ncc(Cl)c(C(=O)NCc2ccc3c(c2)OCO3)n1 | 0.758 |
| O=C(O)c1ccccc1C(=O)Nc1cccc(Cl)c1Cl | -1.95 |
| CN1CCN(C(=O)CN(Cc2ccc(Br)cc2)S(=O)(=O)c2ccccc2)CC1 | 0.408 |
| COC(=O)c1cc2ccsc2n1CC(=O)N(C)C1CCCCC1 | -13.9 |
| N#Cc1c(O)nc(SCc2nc(N)nc(N3CCCCC3)n2)nc1-c1ccccc1 | -0.105 |
| CCC1C(c2ccccc2)NC(c2ccccc2)CC1(O)Cc1ccccc1 (stereo not shown) | -1.56 |
| CC1CCC(N2CCC(C(N)=O)CC2)C1 (stereo not shown) | -4.75 |
| O=C(NCc1ccccc1)c1cccc2c3c([nH]c12)C(C(=O)O)CCC3 (stereo not shown) | 2.13 |
| CN(CCNC(=O)C1c2ccccc2C(=O)N(C)C1c1cn(C)c2ccccc12)Cc1ccccc1 (stereo not shown) | 3.5 |
| O=C1NC(=O)N(Cc2ccccc2)C(=O)/C1=C\c1ccc(SCc2ccc(Cl)cc2)o1 | -5.25 |
| Cc1cccc(-n2c(C)nc3ccsc3c2=O)c1 | -1.12 |
| Cc1sc(C)c(CNC(C)C)c1CNC(C)C | -1.29 |
| CC(C)n1c(N(C)C)nc2c1c(=O)[nH]c(=O)n2C | -0.13 |
| Cc1ccc2c(c1)c1c(n2C)/C(=N/NC(N)=S)CCC1 | -4.84 |
| CCOC(=O)c1c(N)n(-c2ccc(C)cc2)c2nc3ccccc3nc12 | 4.73 |
| O=C(CN1C(=O)S/C(=C\c2ccc(O)cc2)C1=O)N1CCOCC1 | 1.52 |
| CCN(c1ccccc1)S(=O)(=O)c1ccc(NC(=O)COc2ccccc2C)cc1 | -9.02 |
| CCNC(=O)C1=C2c3ccccc3CC(C)(C)N2C(=O)C1=O | 3.57 |
| Cc1ccc(-c2nc(-c3cc4ccc(O)cc4oc3=O)cs2)c(C)c1 | 0.815 |
| COc1ccc(S(=O)(=O)/C=C/c2ccccc2)cc1 | -4.08 |

| SMILES | % Inhibition @ 10 uM [%] |
| --- | --- |
| O=C1NC(=O)c2cc(S(=O)(=O)NCCCO)cc3cccc1c23 | 1.74 |
| COc1cc(OC)cc(C(=O)N2CCN(Cc3cccc4ccccc34)CC2)c1 | -0.795 |
| CCOc1cccc(-c2cc(C(=O)O)c3cc(Br)ccc3n2)c1 | 5.31 |
| CCOc1cc(C2C(C(=O)OC)=C(C)N=C3C2=C(O)c2ccccc23)c(Br)cc1O (stereo not shown) | 6.08 |
| N#Cc1ccccc1NC(=O)c1ccc([N+](=O)[O-])cc1 | -9.41 |
| COc1ccc(-c2c3c(nc4sc(C(C)=O)c(N)c24)C(=O)c2ccccc2-3)cc1 | -2.87 |
| N=C1/C(=C\c2ccc(SCc3ccccc3)o2)C(=O)N=C2SC(CC(=O)N3CCOCC3)=NN12 | 1.62 |
| Nc1nc(Cn2c(-c3nonc3N)nc3ccccc32)nc(N2CCCCC2)n1 | 8.38 |
| Cc1cccc2c(C(=O)O)cc(-c3ccccc3)nc12 | -1.74 |
| COc1ccc(O)c(CN2CCCC(C)C2)c1 (stereo not shown) | -1.78 |
| O=C(O)c1cccc([N+](=O)[O-])c1C(=O)N1CCN(C(=O)c2ccco2)CC1 | -1.76 |
| CCOc1ccc(CNCc2c(C(=O)O)n(Cc3ccc(C)cc3)c3cc(OC)ccc23)cc1OC | 0.436 |
| O=C(NCCCN1CCC(Cc2ccccc2)CC1)c1nnc(Cc2ccc(Cl)cc2Cl)o1 | 7.64 |
| Cc1ccc(C(C)NC(=O)c2ccccc2)cc1 (stereo not shown) | -5.11 |
| Cc1ccc(N(Cc2ccc(F)cc2)C(=O)c2ccc([N+](=O)[O-])cc2)cc1 | -1.8 |
| Cc1cc2nc(COc3ccccc3)cc(=O)n2o1 | -0.495 |
| CCOC(=O)C1CCCN(C/C(C)=C/c2ccccc2)C1 (stereo not shown) | -0.292 |
| CC1=C(C(=O)OCCc2ccccc2)C(c2ccc(C)cc2)C2=C(O)CCCC2=N1 (stereo not shown) | 2.7 |
| CC(C(=O)Nc1ccccn1)c1ccccc1 (stereo not shown) | -3.97 |
| O=C1C(=O)N(C2c3ccccc3Oc3ccccc32)c2ccccc21 | -6.06 |
| COCCNC(=O)c1cc(S(=O)(=O)N2CCCCC2)c[nH]1 | 5.18 |
| CC(C)C[C@@H](COC(=O)NCC#N)NC(=O)OCc1ccccc1 | 1.7 |

| SMILES | % Inhibition @ 10 uM [%] |
| --- | --- |
| Cc1[nH]c2ccccc2c1CCN1C(=O)C2CCCCC2C1=O (stereo not shown) | -5.23 |
| COc1cccc2c1cc1c(=O)n(CC(=O)NCCN(C)C3CCCCC3)nc(C)n12 | -3.47 |
| CCn1c2ccccc2c2cc(NS(=O)(=O)c3ccc(OC)cc3)ccc21 | 0.907 |
| O=C(Nc1ccc(F)cc1)c1ccccc1Br | 1.48 |
| COc1ccc(CCN2C(=O)CCCC2=O)cc1OC | -1.99 |
| CCc1c2c(nc3sc(C(=O)Nc4ccc(OC)cc4)c(N)c13)CC(C)(C)CC2=O | 18.2 |
| CCOc1ccc(-c2cc(C)n3nc(C(=O)N4CCOCC4)cc3n2)cc1 | 3.54 |
| CN(CCCc1ccccc1)CCc1ccccn1 | -7.93 |
| COc1cccc(CN2CCN(C(=O)c3cc(OC)cc(OC)c3)CC2)c1 | -3.37 |
| COC(=O)C1=CN(C(C)c2ccccc2)C=C(C(=O)OC)C1c1cccc(OC)c1OC (stereo not shown) | 1.88 |
| O=C(NCc1ccc(F)cc1)C(Cc1ccccc1)NS(=O)(=O)c1cccs1 (stereo not shown) | -1.73 |
| O=C1NC(c2cccnc2)Nc2sc3c(c21)CCCC3 (stereo not shown) | -2.17 |
| CCOC(=O)N1CCN(C(=O)c2cc3c(=O)oc4ccccc4c3s2)CC1 | 6.64 |
| C=CCOc1ccc(CNCCSc2nnnn2-c2ccccc2)cc1 | 0.596 |
| Cc1nn(-c2ccc(Br)cc2)c(O)c1/C=N/c1ccc(C(=O)O)cc1 | 3.65 |
| O=C(O)CCS(=O)(=O)Cc1ccccc1F | 1.27 |
| COc1ccc(CCNCc2ccccn2)cc1OC | -2.78 |
| Cc1cc(C)cc(NS(=O)(=O)c2ccc(NC(=O)c3ccc(F)cc3)cc2)c1 | -2.19 |
| Cc1[nH]c2ccccc2c1CN1CCN(CCO)CC1 | -0.292 |
| CCOC(=O)Nc1nnc(CC(C)C)s1 | -4.58 |
